The results in this text go back to article PMC11753436, “Functional classification of tauopathy strains reveals the role of protofilament core residues” (Science Advances, 2025).

For the experiment, the target named is T1, Tau RD(LM)-YFP (human, UniProt P10636-8 244-375, P301L | V337M).
T1 construct: tau repeat domain, human, residues 244 to 375, with the disease-associated mutations P301L and V337M (LM); Forms stably propagated amyloid aggregates (strains DS2-DS19) in the cell lines; DS1 is the parental line without aggregates; P301L and V337M are each disease-associated; their combination on one chain was made by people; also called tau repeat domain (244 to 375) P301L/V337M fused to eYFP; …
The experiment is described as follows: FRET or BRET; FRET by flow cytometry (CFP to YFP, median fluorescence intensity of the FRET channel) in DS13 HEK293T cells that stably propagate Tau RD(LM)-YFP aggregates, transduced with lentivirus for Tau RD-CFP variants; read 24 to 72 h after transduction (scans at 48 h); cells gated for comparable YFP and CFP levels. The note with it: partners not purified. On the technique in general: BRET reads energy transfer from a luciferase to a nearby fluorophore.

Chain of Tau RD(LM)-YFP (P10636 561-692 P618L/V654M): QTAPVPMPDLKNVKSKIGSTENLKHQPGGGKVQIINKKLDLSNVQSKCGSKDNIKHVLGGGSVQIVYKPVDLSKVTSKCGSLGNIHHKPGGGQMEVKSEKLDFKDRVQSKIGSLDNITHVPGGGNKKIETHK

B1: Tau RD(LM)-CFP (domain or fragment)
chain: not shown
notes: tau repeat domain, human, […], with P301L and V337M; source: HEK293T (DS strain cells), lentiviral transduction, in cells; not shown: eCFP, C-terminal, kept
On to B1, for which the “fold FRET signal over Tau RD(LM/2P)” value is around 5 fold.
